Experimental data published in PubChem BioAssay AID504832 (National Center for Advancing Translational Sciences (NCATS), 2011).
The campaign covered roughly 310,000 compounds. About 18,000 (5.8%) were called active. Inconclusive means that the source gave no clear call. Such entries were picked first, then a sample of the others. Calls follow the shape of the dose curve; as a rule, active = well fitted inhibition curve with a large enough effect; inconclusive = small, poorly fitted or top-dose-only effect, or another doubt; inactive = no such curve, though single readings can be large or run the other way. Potencies of inconclusive entries are left out as doubtful fits.

Test: Primary qHTS for delayed death inhibitors of the malarial parasite plastid, 48 hour incubation
Details: P. falciparum luciferase growth in erythrocytes; series mostly up to 28.7 µM; activity change, negative = inhibition: at the top concentration
How it was run: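 Luciferase-expressing parasites in RBCs, 2% Hct / 0.1% parasitemia final; RPMI 1640 + 0.5% Albumax; 37 C, 5% CO2, one generation; luminescence read-out, lower signal = inhibition.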
% is scaled to controls: 0 for no effect and ±100 for the full control effect; potency is read from the fitted curve at half-maximal effect; tags tell the direction and shape of the fitted curve.

Structure (SMILES)	Potency	activity change, negative = inhibition
CN(C)CCCN(C(=O)CCc1ccccc1)c1nc2ccc(F)cc2s1	inconclusive [inhibitor, single point]	
Cc1nc(NC(=O)c2ccccc2)sc1C1(C)CC(c2ccccc2F)=NO1 (stereo unspecified)	inconclusive [inhibitor, single point]	
Fc1ccc(-n2cc(CNCCc3ccccn3)c(-c3ccccc3Cl)n2)cc1	active: 8.28 µM	
O=C(Nc1c2c(nn1-c1ccc(F)cc1)CS(=O)(=O)C2)c1ccc(Br)o1	active: 11.7 µM	
O=C(Nc1cccc(S(=O)(=O)N2CCCCCC2)c1)C1CCN(C(=O)c2ccc(F)cc2)CC1	inconclusive [inhibitor, partial curve, poor fit]	
CC(Sc1nncs1)C(=O)NC1CCCCC1C (stereo unspecified)		inactive: 0%
CC(C)Cn1c(O)c(N=NC(=O)c2cccc(S(=O)(=O)N3CCCCC3)c2)c2ccccc21	inconclusive [inhibitor, partial curve, poor fit]	
CCOC(=O)N1CCN(C(=O)CC(=O)Nc2ccc3nc4n(c(=O)c3c2)CCCCC4)CC1	active: 5.86 µM	
Cc1ccc(SCC(=O)c2c(C)nc3cc(C)ccn23)cc1	inconclusive [inhibitor, single point]	
C=C1CCC2[C@](C)(CO)[C@H](O)CC[C@@]2(C)[C@@H]1C/C=C1\C(=O)OC[C@H]1O (stereo partly specified)	inconclusive [inhibitor, single point]	
O=C(Nc1ccc(Br)cc1)c1ccc(N2C(=O)C3CCCCC3C2=O)cc1 (stereo unspecified)		inactive: 40.1%
Cc1ccc(CSc2nnc3ccc(-c4ccncc4)nn23)cc1	inconclusive [inhibitor, partial curve, poor fit]	
Cc1ccccc1OCC(O)CN1C(=O)c2ccccc2C1=O (stereo unspecified)		inactive: 14.2%
CCCCNc1ccc(C(=O)OCCOCCOCCOCCOCCOCCOCCOCCOCCOC)cc1	inconclusive [inhibitor, single point]	
CCN(CC(=O)Nc1ccc(OC)cc1)C(=O)C1CCN(C(=O)c2ccc(Cl)cc2)CC1	inconclusive [inhibitor, partial curve]	
Cn1nc(C(=O)NC2CCCN(Cc3ccccc3F)C2)c2ccccc2c1=O (stereo unspecified)	inconclusive [inhibitor, single point]	
COc1cccc(NC(=O)CNS(=O)(=O)c2ccc(Cl)cc2)c1		inactive: -10.6%
CC(O)CN=c1cc(-c2ccccc2)oc2ccc(Cl)cc12 (stereo unspecified)	inconclusive [inhibitor, single point]	
Cc1cccc(-n2ccnc2SCC(=O)O)c1C		inactive: 0%
COc1cc2c(cc1OC)CN(S(=O)(=O)/C=C/c1ccccc1)CC2	inconclusive [inhibitor, partial curve, poor fit]	
Cc1cc(C)nc(Oc2ccc(Br)cc2Br)n1		inactive: 39.8%
Cc1c(Cc2ccccc2)c(=O)oc2cc(OCC(=O)NCC3CCC(C(=O)O)CC3)ccc12 (stereo unspecified)	inconclusive [inhibitor, partial curve, poor fit]	
FC(F)C(F)(F)C1=CC(c2ccccc2)=NCCN1	inconclusive [inhibitor, full curve]	

Structure (SMILES)	Potency	activity change, negative = inhibition
COc1ccc(CCNc2ncnc3sc(C)cc23)cc1OC	active: 5.22 µM	
CCOC(=O)c1c(CN(C)C)n(-c2ccc(C)cc2)c2cc(Br)c(O)cc12	active: 0.738 µM	
CN1/C(=C/C(=O)C2CC2)C(C)(C)c2ccccc21		inactive: 39%
O=C(NC1CCS(=O)(=O)C1)c1cc(-c2ccccc2)nc2ccccc12 (stereo unspecified)		inactive: -11.9%
COC(=O)c1sccc1NC(=S)N1CCN(C)CC1	inconclusive [inhibitor, single point]	
COc1ccc(C(CCNCc2ccc(N(C)C)cc2)c2ccccc2OC)cc1 (stereo unspecified)	inconclusive [inhibitor, partial curve, poor fit]	
CC(=O)Nc1cc2c(cc1Br)OCCO2		inactive: 2.34%
COc1ccc(CNC(=O)CCS(=O)(=O)c2ccc3c(c2)NC(=O)C(C)S3)cc1 (stereo unspecified)	inconclusive [inhibitor, partial curve, poor fit]	
CCNC(=O)Cc1ccc(NS(=O)(=O)c2ccc(F)cc2)cc1		inactive: -2.83%
COc1ccc(CC2(C)OC(c3ccc(C)c([N+](=O)[O-])c3)=NN2C(C)=O)cc1 (stereo unspecified)	inconclusive [inhibitor, partial curve, poor fit]	
c1ccc(Nc2ccc3c4c(cccc24)CC3)cc1	inconclusive [inhibitor, single point]	
CC(=O)Nc1ccc(C(=O)OCc2ccc(F)cc2Cl)cc1	inconclusive [inhibitor, partial curve]	
O=C(NNC(=O)[C@@H]1CCCC[C@@H]1C(=O)O)c1cccs1		inactive: 14.1%
Cc1cccc(-c2nc(=S)c3c(n2Cc2ccco2)CCCC3)c1		inactive: -21.5%
Cc1ccsc1C(=O)C1CCCN(Cc2cc(C(C)C)n[nH]2)C1 (stereo unspecified)	inconclusive [inhibitor, partial curve, poor fit]	
CCn1c(C)nc2cc(C(=O)NNC(=S)Nc3ccc(C)cc3)ccc21		inactive: -11.2%
Cc1ccc(SC(C)C(=O)N2CCCC2)cc1 (stereo unspecified)	inconclusive [inhibitor, single point]	
Cc1nc2ccccc2c2oc(C(=O)Nc3ccc(C(C)C)cc3)cc12	inconclusive [inhibitor, partial curve]	
C=CCn1c(O)c(C(CC)=NCCc2c[nH]c3ccccc23)c(=O)[nH]c1=O	inconclusive [inhibitor, single point]	
NNC(=O)C1COc2cc3ccccc3cc2O1 (stereo unspecified)	inconclusive [inhibitor, single point]	
COCCOC(=O)C1=C(C)NC(C)=C(C(=O)OC/C=C/c2ccccc2)C1c1cccc([N+](=O)[O-])c1 (stereo unspecified)	active: 10.7 µM	
O=C(NCCCCO)c1ccc2c3c(cccc13)CC2		inactive: 4.71%
COc1cc(/C=C/C(=O)OCC(=O)N(C)Cc2ccccc2)ccc1O	inconclusive [inhibitor, single point]	
